# Data: article PMC9911399, “Two distinct binding modes provide the RNA-binding protein RbFox with extraordinary sequence specificity”
# Substitutions are numbered along the chain they refer to; changes in the protein carry UniProt numbers. This is one part of the list.
# T1: RBFOX1 RRM RbFoxmut (Fox-RRM*) (Homo sapiens, UniProt Q9NWB1 109-208, R118D;E147R;N151S;E152T)
# T1 sequence: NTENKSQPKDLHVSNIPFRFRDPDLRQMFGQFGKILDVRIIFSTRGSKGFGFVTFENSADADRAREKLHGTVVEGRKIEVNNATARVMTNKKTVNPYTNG
# B1: AACGACA (DNA:RNA)
# RNA: GGGAGACCGGAAUUCAGAUUGUCCAACGACAUUAAAUCCCGUCGUAGCCACCA
# DNA 1: CAATCTGAATTCCGGTCTCCC
# DNA 2: TGGTGGCTACGACGGGATT
# B2: GAAGGCG (DNA:RNA)
# RNA: B1 RNA with A25G, C27A, A29G, A31G
# DNA 1: CAATCTGAATTCCGGTCTCCC
# DNA 2: TGGTGGCTACGACGGGATT
# B3: UCAUCAU (DNA:RNA)
# RNA: GGGAGACCGGAAUUCAGAUUGUCCUCAUCAUUUAAAUCCCGUCGUAGCCACCA
# DNA 1: CAATCTGAATTCCGGTCTCCC
# DNA 2: TGGTGGCTACGACGGGATT
# B4: AGCGGGU (DNA:RNA)
# RNA: B1 RNA with A26G, A29G, C30G, A31U
# DNA 1: CAATCTGAATTCCGGTCTCCC
# DNA 2: TGGTGGCTACGACGGGATT
# B5: CCACACA (DNA:RNA)
# RNA: B1 RNA with A25C, A26C, C27A, G28C
# DNA 1: CAATCTGAATTCCGGTCTCCC
# DNA 2: TGGTGGCTACGACGGGATT
# B6: ACGGGGA (DNA:RNA)
# RNA: B1 RNA with A26C, C27G, A29G, C30G
# DNA 1: CAATCTGAATTCCGGTCTCCC
# DNA 2: TGGTGGCTACGACGGGATT
# B7: AACUGAG (DNA:RNA)
# RNA: B1 RNA with G28U, A29G, C30A, A31G
# DNA 1: CAATCTGAATTCCGGTCTCCC
# DNA 2: TGGTGGCTACGACGGGATT
# B8: CUCGCGC (DNA:RNA)
# RNA: B1 RNA with A25C, A26U, A29C, C30G, A31C
# DNA 1: CAATCTGAATTCCGGTCTCCC
# DNA 2: TGGTGGCTACGACGGGATT
# B9: AUCUGGG (DNA:RNA)
# RNA: B1 RNA with A26U, G28U, A29G, C30G, A31G
# DNA 1: CAATCTGAATTCCGGTCTCCC
# DNA 2: TGGTGGCTACGACGGGATT
# B10: AGAGAUC (DNA:RNA)
# RNA: B1 RNA with A26G, C27A, C30U, A31C
# DNA 1: CAATCTGAATTCCGGTCTCCC
# DNA 2: TGGTGGCTACGACGGGATT
# B11: GGUGGAC (DNA:RNA)
# RNA: B1 RNA with A25G, A26G, C27U, A29G, C30A, A31C
# DNA 1: CAATCTGAATTCCGGTCTCCC
# DNA 2: TGGTGGCTACGACGGGATT
# B12: CCAUCAC (DNA:RNA)
# RNA: B3 RNA with U25C, U31C
# DNA 1: CAATCTGAATTCCGGTCTCCC
# DNA 2: TGGTGGCTACGACGGGATT
# B13: UCAGACA (DNA:RNA)
# RNA: B1 RNA with A25U, A26C, C27A
# DNA 1: CAATCTGAATTCCGGTCTCCC
# DNA 2: TGGTGGCTACGACGGGATT
# B14: CCUGCUG (DNA:RNA)
# RNA: B3 RNA with U25C, A27U, U28G, A30U, U31G
# DNA 1: CAATCTGAATTCCGGTCTCCC
# DNA 2: TGGTGGCTACGACGGGATT
# B15: GCGGGAG (DNA:RNA)
# RNA: B3 RNA with U25G, A27G, U28G, C29G, U31G
# DNA 1: CAATCTGAATTCCGGTCTCCC
# DNA 2: TGGTGGCTACGACGGGATT
# B16: AUAGCGU (DNA:RNA)
# RNA: B3 RNA with U25A, C26U, U28G, A30G
# DNA 1: CAATCTGAATTCCGGTCTCCC
# DNA 2: TGGTGGCTACGACGGGATT
# B17: UAGGCGC (DNA:RNA)
# RNA: B1 RNA with A25U, C27G, A29C, C30G, A31C
# DNA 1: CAATCTGAATTCCGGTCTCCC
# DNA 2: TGGTGGCTACGACGGGATT
# B18: ACGAACU (DNA:RNA)
# RNA: B1 RNA with A26C, C27G, G28A, A31U
# DNA 1: CAATCTGAATTCCGGTCTCCC
# DNA 2: TGGTGGCTACGACGGGATT
# B19: UUAUGGU (DNA:RNA)
# RNA: B3 RNA with C26U, C29G, A30G
# DNA 1: CAATCTGAATTCCGGTCTCCC
# DNA 2: TGGTGGCTACGACGGGATT
# B20: CCUCUGA (DNA:RNA)
# RNA: B1 RNA with A25C, A26C, C27U, G28C, A29U, C30G
# DNA 1: CAATCTGAATTCCGGTCTCCC
# DNA 2: TGGTGGCTACGACGGGATT
# Biological target: T1, RBFOX1 RRM RbFoxmut (Fox-RRM*)
# Test: EMSA; HiTS-Eq, 1 nM pool, 10 min; buffer printed only for the single-RNA assays: 10 mM Tris pH 7.5, 150 mM NaCl, 3.4 mM EDTA, 0.001% NP-40, 30 C
# Conditions: tags: His6 N-terminal (pET28a); label: 5' 32P
# Outline: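 Purified RbFox RRM (wild type or mutant) was equilibrated for 10 min in 50 µL with 1 nM of a 5′-radiolabelled pool of RNA with 7 randomized nucleotides, its flanks annealed to DNA oligonucleotides, across increasing protein concentrations. Free RNA was separated by 8% native PAGE, excised, reverse-transcribed, PCR-barcoded and sequenced on an Illumina HiSeq 2500. Relative association constants came from read-count changes of each variant against the control reaction, normalised to the cognate motif.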
row,Binder,binding signal
1,B1,0.0641 KA relative to UGCAUGU
2,B2,0.0988 KA relative to UGCAUGU
3,B3,0.0991 KA relative to UGCAUGU
4,B4,0.136 KA relative to UGCAUGU
5,B5,0.117 KA relative to UGCAUGU
6,B6,0.0851 KA relative to UGCAUGU
7,B7,0.0628 KA relative to UGCAUGU
8,B8,0.111 KA relative to UGCAUGU
9,B9,0.0633 KA relative to UGCAUGU
10,B10,0.0595 KA relative to UGCAUGU
11,B11,0.0584 KA relative to UGCAUGU
12,B12,0.0888 KA relative to UGCAUGU
13,B13,0.0591 KA relative to UGCAUGU
14,B14,0.096 KA relative to UGCAUGU
15,B15,0.135 KA relative to UGCAUGU
16,B16,0.122 KA relative to UGCAUGU
17,B17,0.0905 KA relative to UGCAUGU
18,B18,0.0682 KA relative to UGCAUGU
19,B19,0.1 KA relative to UGCAUGU
20,B20,0.126 KA relative to UGCAUGU
